Laboratory results: PubChem BioAssay (NCI)
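1) Cells in 96-well plates. 2) Compound, 48 h, 5 concentrations. 3) Linear interpolation between surrounding doses. 4) Unreached endpoint = highest concentration. At the GI50, growth is halved. The concentration for full growth arrest is given as TGI.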

System: NCI-H322M lung
Assay: inhibition of tumour cell growth, NCI panel, 48 h

| SMILES | TGI [µM] | GI50 [µM] |
| --- | --- | --- |
| CC(C)S(=O)(=O)ON1C(=O)c2ccc([N+](=O)[O-])cc2C1=O | > 100 |  |
| Cc1nc(C)c(C(=O)NNC(=O)c2ccccc2)cc1C(=O)NNC(=O)c1ccccc1 | > 100 |  |
| CCN(CC)Cc1cc(Nc2c3ccc(Cl)cc3nc3c(C)cccc23)ccc1O | 3.91 | 1.82 |
| COC(=O)[C@@H](C)C[C@H](Cc1ccccc1)NC(=O)c1csc([C@@H](C[C@H](C(C)C)N(C)C(=O)[C@@H](NC(=O)CN(C)C)C2CC2)OC(C)=O)n1 | > 16.5 | 0.101 |
| COc1ccc(OC)c([N+](=O)[O-])c1-c1nc2sc(C)cn2c1/C=N/N=C(N)N | 32.6 |  |
| C[C@@H]1CC(=O)[C@@]2(C)[C@](O)(CCC3O[C@]32C)[C@@]12CC(c1ccoc1)OC2=O (some centres undefined) | > 100 |  |
| COC1OC2COC(c3ccccc3)OC2C(OC(=S)c2ccccc2)C1O (centres undefined) | > 100 |  |
| CCOC(=O)CCN1C(=O)c2c(NC(=O)C(=O)O)cccc2S1(=O)=O | > 100 |  |
| Cc1cc(S(=O)(=O)Nc2n[nH]c(N)n2)c(S)cc1Cl | > 10 |  |
| CCOC(=O)N1c2c(c3ccccc3n2C(=O)OCC)C(=O)C(OC)N1C(=O)OCC (centres undefined) | > 100 |  |
| O=C1/C(=C/c2ccccc2)CN(C(=O)Oc2ccccc2)C/C1=C\c1ccccc1 | > 100 |  |
| COc1ccc(C2C3=C(COC3=O)N(CCO)c3cc4c(cc32)CCC4)cc1OC (centres undefined) | > 50 | 2.15 |
| CN1CCN(C2CC(=O)c3c(Cl)sc(Cl)c32)CC1 (centres undefined) | > 53.4 |  |
| Cc1nc(=O)n2c(c1C(=O)Nc1ccc(Cl)cc1)NCCC2 | > 100 |  |
| O=C(Nc1ccc(I)cc1F)c1cc(F)ccc1O | > 64.5 | 0.428 |
| CC(=O)O[C@H]1CC[C@]2(C=O)[C@H]3CC[C@]4(C)[C@@H](C5=CC(=O)OC5)CC[C@]4(O)[C@@H]3CC[C@]2(O)C1 | 3.06 |  |
| N#CCCCCCn1c2ccccc2c2c3c(c4c5ccccc5[nH]c4c21)C(=O)N(O)C3=O | 7.91 | 2.28 |
| CCOC(=O)/C=C/C(Br)=C(Br)/C=C/C(=O)OCC | > 100 |  |
| COc1ccc(C2=C(N)c3cc(OC)ccc3C2=O)cc1 | > 100 |  |
| Cn1cc(C2=C(c3cn(C)c4cc(Cl)ccc34)C(=O)NC2=O)c2ccccc21 | > 25 | 0.282 |
| CCCN(CCC)c1c([N+](=O)[O-])cc(C(N)=O)cc1[N+](=O)[O-] | > 100 |  |
| NC(=O)c1ccc(S(=O)(=NS(=O)(=O)c2ccccc2)c2ccc(C(N)=O)cc2)cc1 | > 100 |  |
| O=C1NC(=Nc2ccccc2Cl)SC1C(=O)Nc1ccc([N+](=O)[O-])cc1[N+](=O)[O-] (centres undefined) | > 100 |  |
| COC(=O)C1=C(C)NC(C)=C(C(=O)OC)C1c1ccccc1[N+](=O)[O-] | > 100 | 97.3 |
| C[S+](C)C1(c2ccccc2)C(=O)c2ccccc2C1=O | > 100 |  |

| SMILES | TGI [µM] | GI50 [µM] |
| --- | --- | --- |
| C/C(CC(=O)Nc1cc(Cl)c(Cl)cc1Cl)=N\NS(=O)(=O)c1ccc(C)cc1 | > 100 |  |
| C=CCN1C(=O)C/C(=C2/CCC(=O)N2CC=C)C1=O | > 100 |  |
| COc1ccc(Nc2ccnc3cc(Cl)ccc23)cc1CN(CCCl)CCCl | 7.29 | 2.27 |
| COc1cc(OC)cc(-c2nc3ccccc3c(=O)[nH]2)c1 | > 100 |  |
| O=C1c2ccccc2-c2c1c1ccccc1c(=O)n2CCCNCCO | 9.65 | 1.92 |
| CCC(C)Cn1c(C)nc2c1C(=O)c1ccccc1C2=O (centres undefined) | > 100 |  |
| O=C1CCC(=O)C(C(=O)CCC(=O)Nc2ccc(Cl)cc2)C1 (centres undefined) | > 100 |  |
| CC1=NNC(N)=N/C1=C\C(Sc1ccc(Cl)cc1)c1ccc(Cl)cc1Cl (centres undefined) | 37.2 |  |
| O=C(O)c1ccccc1/C=C1/Nc2ccccc2C1=O | > 100 |  |
| C[C@@H]1CC[C@H]2C(CN(C)CC3=C(C(F)(F)F)O[C@@H]4O[C@@]5(C)CC[C@H]6[C@H](C)CC[C@@H]3[C@@]46OO5)=C(C(F)(F)F)O[C@@H]3O[C@@]4(C)CC[C@@H]1[C@]32OO4 | > 100 | > 75.2 |
| Oc1[nH]c2ccccc2c1N=NC(=S)NCc1ccccn1 | 18.3 |  |
| Cn1cc(C2=C(c3cccc(Cl)c3)C(=O)NC2=O)c2ccccc21 | > 25 | > 25 |
| Cc1cccc(-c2cc(=O)c3cc(C)cnc3[nH]2)c1 | > 100 |  |
| O=[N+]([O-])C1(CO)COC2(OC1)c1ccccc1-c1ccccc12 | > 100 |  |
| N#Cc1nc(C(=O)c2ccccc2)oc1N | > 100 |  |
| CC(=O)O[C@H]1Cc2c([nH]c3ccccc23)[C@@H](c2ccc(Cl)cc2)N1C(=O)CCNC(C)(C)C | 9.06 | 4.51 |
| CCc1cc2c(c3[nH]ccc13)[C@@H](C)C[C@H]2C | 34.2 |  |
| COc1ccc(C2CCc3c(cnc4nc(N)nc(N)c34)C2)cc1 (centres undefined) | > 100 |  |
| Cc1cc(C)c(N)c(CO)c1 | > 100 |  |
| COc1ccc(CN[C@H]2CCc3cc(OC)c(OC)c(OC)c3-c3ccc(SC)c(=O)cc32)c(OC)c1OC | > 100 | < 0.01 |
| Cc1cccc2c1C(=O)/C(=C/c1ccccc1C(=O)O)C2 | > 100 |  |
| CC(C)c1cc(C(C)C)c(B(c2ccccc2)c2ccccc2)c(C(C)C)c1Br | > 100 |  |
| O=C1/C(=C/Cc2ccco2)N=C(c2ccccc2)N1c1nc2c(Cl)cc(Cl)cc2s1 | > 100 |  |
| O=C(N(C1=CCCC1)N(c1ccccc1)c1ccccc1)C(F)(F)F | 87.4 |  |
| CCn1c(-c2nonc2N)nc2c(C#CC(C)(C)O)ncc(OCC3CCNCC3)c21 | > 25 | > 17.9 |
